These are yes or no findings as the source states them, for the method shown. For some assays here: In cells and extracts the contact can be indirect. Some entries that bind do so weakly or less than the wild type. One block for each molecule: values may come before it.
Assays:
[1] = target: syntaxin1B (mouse (endogenous in brain)) (UniProt P61264); assay: co-IP; syntaxin1B immunoprecipitated from CHL1+/+ and CHL1-/- mouse synaptosomes treated with 4 mM or 90 mM K+ (90 s); Western blot
[2] = target: Close homologue of L1 (CHL1) (mouse (endogenous in brain)) (UniProt P70232); assay: co-IP; CHL1 immunoprecipitated from mouse brain synaptosomes, mock-stimulated (4 mM K+) or stimulated one or two times with 47 mM K+ for 90 s with or without 5 min recovery in 4 mM K+; Western blot
[3] = target: Close homologue of L1 (CHL1) (mouse (endogenous in brain)) (UniProt P70232); assay: condition: only mock-stimulated synaptosomes (4 mM K+), without stimulation by 47 mM K+; co-IP; CHL1 immunoprecipitated from mock-stimulated (4 mM K+) mouse brain synaptosomes; Western blot, also at high exposure
[4] = target: syntaxin1B (mouse (endogenous in brain)) (UniProt P61264); assay: pull-down; syntaxin1B immunoprecipitated (immunopurified) from synaptosomes, on beads; native recombinant SNAP25 and VAMP2 added together; Western blot; both purified
[5] = target: Close homologue of L1 (CHL1) (mouse (endogenous in brain)) (UniProt P70232); assay: co-IP; CHL1 immunoprecipitated from adult mouse brain lysates (50 mM Tris-HCl pH 7.5, 150 mM NaCl, 1% Nonidet P-40, 1 mM EDTA); protein A/G-agarose; Western blot; mock IP with non-specific Ig as control
[6] = target: 70 kDa heat shock cognate protein (Hsc70) (mouse (endogenous in brain)) (UniProt P63017); assay: native gel or EMSA; synaptic vesicles and synaptic plasma membranes of mouse brain lysed in 1% Triton X-100 (removed with Bio-Beads), 2-mercaptoethanol added; 6% PAGE under non-denaturing conditions; Western blot; overlapping bands at or above the summed molecular weight taken as presumed complex
[7] = target: Close homologue of L1 (CHL1) (mouse (endogenous in brain)) (UniProt P70232); assay: as above
[8] = target: Close homologue of L1 (CHL1) (mouse (endogenous in brain)) (UniProt P70232); assay: co-IP; CHL1 immunoprecipitated from adult mouse brain lysates (50 mM Tris-HCl pH 7.5, 150 mM NaCl, 1% Nonidet P-40, 1 mM EDTA); protein A/G-agarose; Western blot; mock IP with non-specific Ig as control; remark: listed apart in the source

Amino acid sequences for entries named in this document (tags omitted). Residues count along the entry.
UniProt P70232, residues 26-1209: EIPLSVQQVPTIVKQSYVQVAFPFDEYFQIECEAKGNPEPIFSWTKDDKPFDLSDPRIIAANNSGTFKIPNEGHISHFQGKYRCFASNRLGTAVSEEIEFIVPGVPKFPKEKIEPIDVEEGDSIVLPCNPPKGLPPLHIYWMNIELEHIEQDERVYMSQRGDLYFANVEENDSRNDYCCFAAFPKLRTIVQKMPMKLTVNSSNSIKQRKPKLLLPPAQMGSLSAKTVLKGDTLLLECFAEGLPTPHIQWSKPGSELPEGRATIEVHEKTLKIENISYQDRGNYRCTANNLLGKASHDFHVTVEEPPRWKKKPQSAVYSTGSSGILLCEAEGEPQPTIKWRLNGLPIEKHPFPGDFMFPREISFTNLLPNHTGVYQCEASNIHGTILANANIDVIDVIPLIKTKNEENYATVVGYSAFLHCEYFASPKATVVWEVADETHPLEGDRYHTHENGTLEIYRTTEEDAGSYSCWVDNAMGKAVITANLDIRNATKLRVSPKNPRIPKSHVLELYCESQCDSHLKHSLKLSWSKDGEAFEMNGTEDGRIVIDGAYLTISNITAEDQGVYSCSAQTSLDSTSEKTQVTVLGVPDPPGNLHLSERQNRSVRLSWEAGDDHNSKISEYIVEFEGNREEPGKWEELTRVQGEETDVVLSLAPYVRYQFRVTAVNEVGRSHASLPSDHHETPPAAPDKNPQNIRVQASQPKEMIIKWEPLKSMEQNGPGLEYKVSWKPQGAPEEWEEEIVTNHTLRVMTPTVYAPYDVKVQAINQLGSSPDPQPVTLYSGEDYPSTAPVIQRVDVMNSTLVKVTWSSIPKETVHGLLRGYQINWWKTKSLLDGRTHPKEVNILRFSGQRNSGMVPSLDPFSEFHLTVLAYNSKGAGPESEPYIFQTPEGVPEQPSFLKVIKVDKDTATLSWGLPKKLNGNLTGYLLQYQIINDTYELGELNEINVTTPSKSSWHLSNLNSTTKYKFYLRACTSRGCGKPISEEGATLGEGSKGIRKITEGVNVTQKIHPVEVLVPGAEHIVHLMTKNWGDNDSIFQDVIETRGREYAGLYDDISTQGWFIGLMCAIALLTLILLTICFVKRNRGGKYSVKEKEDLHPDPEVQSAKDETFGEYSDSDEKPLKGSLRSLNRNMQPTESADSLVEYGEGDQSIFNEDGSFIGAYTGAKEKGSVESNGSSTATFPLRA
UniProt P63017: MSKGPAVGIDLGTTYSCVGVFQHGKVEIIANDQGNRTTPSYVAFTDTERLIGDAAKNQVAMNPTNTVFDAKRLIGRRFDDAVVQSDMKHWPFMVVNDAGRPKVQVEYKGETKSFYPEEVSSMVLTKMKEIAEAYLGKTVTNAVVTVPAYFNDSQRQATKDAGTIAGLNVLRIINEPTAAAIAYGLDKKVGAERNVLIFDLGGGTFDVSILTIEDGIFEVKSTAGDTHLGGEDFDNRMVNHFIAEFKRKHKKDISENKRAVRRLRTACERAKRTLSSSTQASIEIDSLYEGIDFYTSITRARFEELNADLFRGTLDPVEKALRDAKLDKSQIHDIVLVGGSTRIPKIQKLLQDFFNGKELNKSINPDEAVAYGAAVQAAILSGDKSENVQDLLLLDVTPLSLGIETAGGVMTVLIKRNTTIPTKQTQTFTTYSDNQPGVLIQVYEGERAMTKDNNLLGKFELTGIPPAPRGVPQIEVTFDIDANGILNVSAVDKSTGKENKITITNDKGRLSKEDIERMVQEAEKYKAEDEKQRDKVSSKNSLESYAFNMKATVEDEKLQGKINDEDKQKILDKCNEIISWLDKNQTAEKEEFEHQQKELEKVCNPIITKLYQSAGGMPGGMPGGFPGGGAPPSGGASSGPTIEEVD
UniProt P63044: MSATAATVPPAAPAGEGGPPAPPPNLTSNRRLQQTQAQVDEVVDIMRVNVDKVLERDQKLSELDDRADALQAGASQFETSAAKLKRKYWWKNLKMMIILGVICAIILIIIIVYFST
UniProt P60879: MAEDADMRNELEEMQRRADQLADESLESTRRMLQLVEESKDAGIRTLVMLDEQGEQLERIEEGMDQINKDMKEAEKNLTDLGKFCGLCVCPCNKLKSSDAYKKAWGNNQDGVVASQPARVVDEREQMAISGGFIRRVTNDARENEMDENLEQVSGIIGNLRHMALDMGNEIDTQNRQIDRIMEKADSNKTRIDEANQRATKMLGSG
UniProt Q62277: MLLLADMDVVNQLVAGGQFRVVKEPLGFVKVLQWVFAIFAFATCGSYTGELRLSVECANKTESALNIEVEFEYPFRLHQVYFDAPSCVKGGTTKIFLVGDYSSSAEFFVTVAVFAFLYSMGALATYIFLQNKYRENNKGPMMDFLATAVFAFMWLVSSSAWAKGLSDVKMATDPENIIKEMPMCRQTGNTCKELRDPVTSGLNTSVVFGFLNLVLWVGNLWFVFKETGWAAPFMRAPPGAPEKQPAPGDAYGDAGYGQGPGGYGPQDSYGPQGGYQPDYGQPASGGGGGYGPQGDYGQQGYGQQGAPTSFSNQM

Molecule: VAMP2 (from UniProt P63044 1-116)
- binding [1]: binds
- binding [2]: binds

Molecule: recombinant SNAP25 (from UniProt P60879 1-206)
- binding [4]: binds

Molecule: recombinant VAMP2 (from UniProt P63044 1-116)
- binding [4]: binds

B3: syntaxin1B (natural protein, mouse (endogenous in brain), UniProt P61264 1-288, looked up)
chain: MKDRTQELRSAKDSDDEEEVVHVDRDHFMDEFFEQVEEIRGCIEKLSEDVEQVKKQHSAILAAPNPDEKTKQELEDLTADIKKTANKVRSKLKAIEQSIEQEEGLNRSSADLRIRKTQHSTLSRKFVEVMTEYNATQSKYRDRCKDRIQRQLEITGRTTTNEELEDMLESGKLAIFTDDIKMDSQMTKQALNEIETRHNEIIKLETSIRELHDMFVDMAMLVESQGEMIDRIEYNVEHSVDYVERAVSDTKKAVKYQSKARRKKIMIIICCVVLGVVLASSIGGTLGL
notes: syntaxin1B, SNARE complex protein, endogenous in adult mouse brain; also called synatxin1B; source: endogenous, mouse brain lysate and synaptosomes; immunoprecipitated from synaptosomes and held on beads
- binding [2]: binds
- binding [3]: no binding

The remaining lines, values ahead:

- binding [1]: binds
- binding [2]: binds
- binding [3]: no binding
Molecule: SNAP25 (from UniProt P60879 1-206)

- binding [5]: no binding
Molecule: synaptophysin (from UniProt Q62277 1-314)

- binding [6]: binds
- binding [7]: binds
B1: small glutamine-rich tetratricopeptide repeat-containing protein, ubiquitous isoform (αSGT) (natural protein, mouse (endogenous in brain), UniProt Q8BJU0 1-315, looked up)
chain: MDNRKRLAYAIIQFLHGQLRHGGLSCDAQESLEVAIQCLETAFGVTLEDSDLALPQTLPEIFEAATSSKQEMPQDPRAPDRTPPSEEDSAEAERLKTEGNEQMKLENFEAAVHLYGKAIELNPANAVYFCNRAAAYSKLGNYVGAVQDCERAIGIDPGYSKAYGRMGLALSSLNKHAEAVAYYKKALELDPDNDTYKSNLKIAELKLREAPSPTGGVGSLDIAGLLNNPHFITMASSLMNSPQLQQLMSGMISGGHNPLGTPGSSPQQSDLASLIQAGQQFAQQMQQQNPEFVEQIRSQVVRSRTPSASHEEQQE
notes: αSGT, endogenous in adult mouse brain; also called alphaSGT; source: endogenous, mouse brain lysate; synaptic vesicles and synaptic plasma membranes

- binding [7]: binds
B2: cysteine string protein (CSP), αCSP isoform (protein, UniProt P60904 1-198)
chain: MADQRQRSLSTSGESLYHVLGLDKNATSDDIKKSYRKLALKYHPDKNPDNPEAADKFKEINNAHAILTDATKRNIYDKYGSLGLYVAEQFGEENVNTYFVLSSWWAKALFVVCGLLTCCYCCCCLCCCFNCCCGKCKPKAPEGEETEFYVSPEDLEAQLQSDEREATDTPIVIQPASATETTQLTADSHPSYHTDGFN

- binding [8]: no binding
B4: small glutamine-rich tetratricopeptide repeat-containing protein, brain specific isoform (βSGT) (protein, UniProt Q8VD33 1-304)
chain: MSSVKPLVYAVIRFLREQSQMDAYTSDEQESLEVAIQCLETVFKISPEDTHLAVSQPLTEMFTNSVCKNDIRPLSNSVPEDVGKADQLKDEGNNHMKEENYAAAVDCYTQAIELDPNNAVYYCNRAAAQSKLSHYTDAIKDCEKAIAIDSKYSKAYGRMGLALTAMNKFEEAVTSYQKALDLDPENDSYKSNLKIAEQKLREVSSPTGTGLSFDMASLINNPAFITMAASLMQNPQVQQLMSGMMTNAIGGPAAGVGGLTDLSSLIQAGQQFAQQIQQQNPELIEQLRNHIRSRSFSSSADEHS

Source: publication PMC2920317, “CHL1 Is a Selective Organizer of the Presynaptic Machinery Chaperoning the SNARE Complex” (PLoS ONE, 2010)
